According to PubChem BioAssay AID360 (National Center for Advancing Translational Sciences (NCATS), 2006):
Out of some 48,000 compounds screened, about 550 (1.1%) were called active. Not shown: some 4% with an inconclusive outcome. Rule as the data show it: active = potency below about 15 µM; inconclusive = mostly about 16 µM to 33 µM; inactive = weaker than that. The list shows a part of the results.

target: Lysosomal acid glucosylceramidase (Homo sapiens) (UniProt P04062); assay: Glucocerebrosidase; conditions: purified enzyme, resorufin glucoside fluorescence (screen aimed at inhibitors), 20 min;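 also: the screen sought inhibitors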
Chain of UniProt P04062 (P04062 whole entry, looked up): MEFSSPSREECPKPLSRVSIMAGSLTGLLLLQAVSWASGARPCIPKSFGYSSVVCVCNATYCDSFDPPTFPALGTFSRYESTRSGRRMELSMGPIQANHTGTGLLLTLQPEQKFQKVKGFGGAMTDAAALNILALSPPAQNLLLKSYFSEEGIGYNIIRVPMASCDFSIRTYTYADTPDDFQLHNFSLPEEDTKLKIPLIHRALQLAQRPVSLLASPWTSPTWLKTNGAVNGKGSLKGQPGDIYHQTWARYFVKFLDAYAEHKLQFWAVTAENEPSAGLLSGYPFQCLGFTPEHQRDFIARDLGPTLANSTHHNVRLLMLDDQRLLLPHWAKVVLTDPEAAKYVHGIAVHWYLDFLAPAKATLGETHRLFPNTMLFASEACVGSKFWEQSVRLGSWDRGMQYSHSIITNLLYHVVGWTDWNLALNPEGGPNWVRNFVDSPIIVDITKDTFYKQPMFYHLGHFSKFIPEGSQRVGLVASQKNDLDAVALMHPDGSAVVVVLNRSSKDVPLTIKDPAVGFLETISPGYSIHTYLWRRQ
In short: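 Normal human glucocerebrosidase (0.2 nM final) was assayed with resorufin β-D-glucopyranoside (30 uM final) in 50mM citric acid/KH2PO4, 10mM sodium taurocholate, 0.01% tween-20, pH 5.9. Compounds were titrated; fluorescence (Ex 548, Em 600) read after 20 min at RT.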
Potency is read from the fitted curve at half-maximal effect.

Potency, inactive:
Cc1ccc2nsnc2c1S(=O)(=O)NCc1cccnc1 > 76.9 µM
COc1cccc(OCC(O)CN2CCN(CCO)CC2)c1 (configuration not stated) > 76.9 µM
CCn1nc(C(=O)OCC(=O)NCCN2C(=O)CSC2=O)c2ccccc2c1=O > 76.9 µM
Cc1cc(Cl)c(S(=O)(=O)Nc2ccon2)cc1OCC(=O)NC1CCCCC1 > 76.9 µM
Cc1[nH]nc2c1C(Cc1ccccc1)C(C#N)=C(N)O2 (configuration not stated) > 76.9 µM
O=c1c2cccnc2[nH]c(=S)n1CCCN1CCN(c2ccc(F)cc2)CC1 > 76.9 µM
COc1ccc(C(C)=O)cc1COC(=O)Cc1n[nH]c(=O)c2ccccc12 > 76.9 µM
N#Cc1nc(Cc2ccccc2)oc1N1CCN(c2ccccc2)CC1 > 76.9 µM
CCOC(=O)CSc1nnc(Cc2ccccc2)n1Cc1ccco1 > 76.9 µM
Cc1[nH]nc(-c2ccc(O)cc2O)c1-c1ccc(Cl)cc1 > 76.9 µM
CCOC(=O)C1CCN(C(=O)COc2ccc(S(=O)(=O)NC(C)C)cc2Cl)CC1 > 76.9 µM
CCc1noc(C)c1C(=O)Nc1ncc(C)s1 > 76.9 µM
CCN(Cc1nc2cc(OC)c(OC)cc2c(=O)[nH]1)C(=O)c1ccc(S(=O)(=O)N(C)C)cc1 > 76.9 µM
CC(=O)N1CCc2cc(S(=O)(=O)NCCC3=CCCCC3)ccc21 > 76.9 µM
CCOC(=O)C1CCN(C(=O)C2CCN(S(=O)(=O)c3c(C)noc3C)CC2)CC1 > 76.9 µM
CCOC(=O)Cc1nnc(NC(=O)CSc2ccccc2)s1 > 76.9 µM
Cc1ccc(NC(=O)COC(=O)C2CCC(=O)N2)c(S(=O)(=O)N2CCOCC2)c1 (configuration not stated) > 76.9 µM
O=C(NCc1ccccc1)N1CCC(c2nc3ccccc3[nH]2)CC1 > 76.9 µM
Cn1c(=O)c2c(-c3ccccc3)n3c4ccccc4ncc3c2n(C)c1=O > 76.9 µM
O=C(CCNC(=O)c1ccc(Br)o1)NCc1ccccn1 > 76.9 µM
CCOC(=O)Nc1sc(C)nc1-c1ccccc1 > 76.9 µM
O=C(CCN1CCc2ccccc2C1)Nc1ccc(F)cc1 > 76.9 µM
CCOc1ccccc1OCC(=O)Nc1nnc(C)s1
Cn1c(N2CCN(C(=O)NCc3ccccc3)CC2)nc2ccccc21 > 76.9 µM
O=C(CCn1c(=S)[nH]c2cc3c(cc2c1=O)OCO3)NCCN1CCCC1 > 76.9 µM
CCCCN1Cc2cc(C(=O)c3cc(F)ccc3O)cnc2NC1=O > 76.9 µM
CCn1c(=NC(=O)CSC(C)=O)sc2ccccc21 > 76.9 µM
Cc1ccc(CNC(=O)c2cn(C3CCCCC3)c(=O)c3c2c2ccccc2n3C)o1 > 76.9 µM
Cc1ccccc1-c1nnc(SCc2ccc(F)cc2)o1 > 76.9 µM
COC(=O)c1c(NC(=O)C2CCC2)sc(C(=O)N(C)C)c1C > 76.9 µM
CCCCOC(=O)c1ccc(NC(=O)c2ocnc2C)cc1 > 76.9 µM
CCCCCC(C(=O)O)C(C)CC(=O)NC1CCCCC1 (configuration not stated) > 76.9 µM
O=C(CSc1nnc(-c2ccncc2)n1-c1ccc(Cl)cc1)N1CCOCC1 > 76.9 µM
COC(=O)Cc1[nH]nc2c1C(c1c[nH]c3ccccc13)C(C#N)=C(N)O2 (configuration not stated) > 76.9 µM
COc1cccc(C(c2nnnn2CCc2ccccc2)N2CCN(c3ccccc3)CC2)c1OC (configuration not stated) > 76.9 µM
COC(=O)c1ccc(-n2nnnc2SCC(=O)Nc2ccccc2OC)cc1 > 76.9 µM
CCCCCc1nc2c(=O)[nH]c3ccccc3c2o1 > 76.9 µM
CCN(CC)S(=O)(=O)c1ccc(C(=O)NCc2nnc(SCC(=O)OC)n2C)cc1 > 76.9 µM
CCOc1cc(S(=O)(=O)Nc2ccccn2)ccc1F > 76.9 µM
CCOC(=O)c1[nH]c2ccc(Br)cc2c1NC(=O)CCN1CCCCC1 > 76.9 µM
CCOC(=O)c1cccc(NC(=O)CSc2nc3ccccc3c(=O)n2CC)c1 > 76.9 µM
CCN(CCCNC(=O)c1[nH]c(C)c(C(C)=O)c1C)c1ccccc1 > 76.9 µM
CN(CC(=O)NC1CCCCCC1)S(=O)(=O)c1ccccc1 > 76.9 µM
O=S(=O)(N1CCCCC1)N1CCN(S(=O)(=O)N2CCCCC2)CC1 > 76.9 µM
CCN(CC)C(=O)CSc1nnc(-n2nc(C)cc2C)c2ccccc12 > 76.9 µM
CCn1c(=O)cc(OCC(=O)N2CCN(C(=O)c3ccco3)CC2)c2ccccc21 > 76.9 µM
O=C(Cc1ccc(S(=O)(=O)N2CCCC2)s1)N1CCOCC1 > 76.9 µM
Cc1cc2c(cc(C(=O)O)n2C)s1 > 76.9 µM
O=C(O)C1CC=CCC1C(=O)Nc1cccc(C(=O)N2CCCCC2)c1 (configuration not stated) > 76.9 µM
COc1cc(C(C#N)N2CCOCC2)ccc1O (configuration not stated) > 76.9 µM
CCCCS(=O)(=O)/C=C\C1C2C=CC(C2)C1S(=O)(=O)CCCC (configuration not stated) > 76.9 µM
Cc1cc(C)n2nc(NCc3ccccc3)nc2n1 > 76.9 µM
O=c1[nH]c2c(n(C3CCCCC3)c1=O)CCC2 > 76.9 µM
COC(=O)c1ccccc1NC(=O)C1CCN(C(=O)c2cc(OC)cc(OC)c2)CC1 > 76.9 µM
O=C(N1CCOCC1)N1CCOCC1 > 76.9 µM
Cc1cc(S(=O)(=O)NCC(=O)O)ccc1F > 76.9 µM
O=C(Cc1cccs1)N(Cc1ccco1)C1(C(=O)NC2CCCC2)CCCCC1 > 76.9 µM
Cc1cc(C(C)c2ccccc2)c(O)c(CN2CCOCC2)c1C (configuration not stated) > 76.9 µM
COc1ccc(CCNS(=O)(=O)c2ccccc2)cc1OC > 76.9 µM
CCOC(=O)Nc1ccc(C)cc1Br > 76.9 µM
O=C(COC(=O)C1CC2C=CC1C2)Nc1ccc2c(c1)OC(F)(F)O2 (configuration not stated) > 76.9 µM
O=C(Nc1ccc(Cl)c(Cl)c1)OCc1cccnc1 > 76.9 µM
Cc1ccc(-c2nnn(CC(=O)Nc3ccccc3N3CCOCC3)n2)cc1 > 76.9 µM
COc1c(Cl)cc(Cl)cc1C(=O)Nc1ccccc1N1CCN(C(C)=O)CC1 > 76.9 µM
O=C1CSC(c2cn(-c3ccccc3)nc2-c2cccs2)N1CC1CCCO1 (configuration not stated) > 76.9 µM
CC1(C)CC(=O)C(C=Nc2ccccc2C(=O)O)=C(O)C1 > 76.9 µM
O=C(c1ccccc1/S(=N/S(=O)(=O)c1ccccc1)N1CCOCC1)N1CCOCC1 (configuration not stated) > 76.9 µM
COc1cccc(CSc2nnc(-c3ccco3)n2C)c1 > 76.9 µM
COC(=O)Cc1c(C)nc2nc(Cc3ccccc3)[nH]n2c1=O > 76.9 µM
Cc1ccc(NCc2nnc(SCC(=O)N3CCCc4ccccc43)o2)c(C)c1 > 76.9 µM
Cn1nnnc1SCC(=O)NC(C)(C)C > 76.9 µM
O=C(O)CCCNS(=O)(=O)c1cccs1 > 76.9 µM
Cc1nc(SCC(=O)NCc2ccc3c(c2)OCO3)c(C#N)c2c1CCCC2 > 76.9 µM
Cc1ccc(-c2nc3ccccc3c(=O)n2CCCn2ccnc2)cc1 > 76.9 µM
CS(=O)(=O)N(CCc1ccccc1)CC(=O)NCC1CCCO1 (configuration not stated) > 76.9 µM
CC(C)Cn1c(=O)c(C(=O)NCc2ccccn2)c(O)c2ccccc21 > 76.9 µM
CCOC(=O)Cc1cc(=O)n2[nH]c(C)c(-c3ccccc3)c2n1 > 76.9 µM
CCOc1ccc(C2C(C#N)=C(N)Oc3n[nH]c(C)c32)cc1OC(=O)C1CC1 (configuration not stated) > 76.9 µM
COc1cccc(C(C(=O)NC(C)(C)C)N(C(=O)CCC(=O)Nc2cc(C)on2)C2CC2)c1OC (configuration not stated) > 76.9 µM
CCN(CC)C(=O)CSC(=Nc1ccccc1F)NC#N > 76.9 µM
CC1CCCC(NC(=O)c2n[nH]c(=O)c3ccccc23)C1C (configuration not stated) > 76.9 µM
COc1ccc(OC)c(NC(=O)CCC(=O)Nc2nnc(C(F)(F)F)s2)c1 > 76.9 µM
COC(=O)c1ccc(CSc2nc3c(cnn3-c3ccc(C)cc3)c(=O)[nH]2)o1 > 76.9 µM
COc1cc(OC)cc(OCC(O)Cn2ccnc2C)c1 (configuration not stated) > 76.9 µM
CCOC(=O)Cn1c2ccc(OC)cc2c2nc3ccccc3nc21 > 76.9 µM
O=C(O)CN1C(=O)CNC1=O > 76.9 µM
CC(=O)Cc1nsc(NC(=O)c2c(-c3ccccc3Cl)noc2C)n1 > 76.9 µM
O=C(c1ccncc1)c1ccc(Br)cc1 > 76.9 µM
O=C(NCc1cccs1)c1nc2c(nnn2Cc2ccc(F)cc2)c(=O)[nH]1 > 76.9 µM
COc1cc2nc(C3CC3)n(NC(=O)c3ccc(F)cc3)c(=O)c2cc1OC > 76.9 µM
CC(=O)c1cccc(NC(=O)Nc2ccc3c(c2)N(C)C(=O)CS3)c1 > 76.9 µM
CCCC(=O)Nc1nnc(Sc2ccc(N(C)C)cc2)s1 > 76.9 µM
